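1) Cells in 96-well plates. 2) Compound, 48 h, 5 concentrations. 3) Linear interpolation between surrounding doses. 4) Unreached endpoint = highest concentration. GI50 is the concentration that inhibits growth by half. Definition used: TGI = concentration required for complete inhibition of growth.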
System: NCI-H322M lung
Assay: inhibition of tumour cell growth, NCI panel, 48 h

Row | Structure (SMILES) | TGI | GI50
1 | CCCNC(=S)NNC(=O)CSc1nc(-c2ccccc2)c(-c2ccccc2)[nH]1 | > 100 µM | –
2 | O=C(O)CCC(NC(=O)c1ccc(Nc2nc3cc(C(F)(F)F)ccc3nc2-c2ccccc2)cc1)C(=O)O (stereo not drawn) | > 100 µM | –
3 | Fc1cc(-c2cc(-c3ccccc3)no2)c(Cl)cc1Cl | > 55.9 µM | –
4 | O=C1/C(=C/c2ccc3c(c2)OCO3)SC2C=Nc3ccccc3N12 (stereo not drawn) | > 100 µM | –
5 | CC(C)=CC[C@]12CCN[C@H]1N(S(=O)(=O)c1ccccc1)c1ccccc12 | 67.2 µM | –
6 | N#Cc1c(N)n(-c2cccc(C(=O)O)c2)c(=O)c2cc([N+](=O)[O-])ccc12 | > 100 µM | –
7 | N#CC(C(=O)C(=O)C(C#N)c1ccc(Br)cc1)c1ccc(Br)cc1 (stereo not drawn) | 25.9 µM | –
8 | CCn1c2ccccc2c2cc(NC(=O)Nc3ccc([N+](=O)[O-])cc3C)ccc21 | > 100 µM | 16.8 µM
9 | Nc1nc(SC/C=C/c2ccccc2)c2[nH]cnc2n1 | > 100 µM | –
10 | Nc1nc(N)c2c3c(cnc2n1)CC(c1ccccc1)CC3 (stereo not drawn) | 63.6 µM | –
11 | O=C(N[C@@H](c1ccc(Cl)c(Cl)c1)C1CNC1)c1ccc2cnccc2c1 | 14 µM | 1.29 µM
12 | O=C(CSc1nc2ccccc2nc1-c1ccccc1)Nc1ccc(F)cc1 | > 100 µM | 30.5 µM
13 | C=C(Cl)C(Br)(CCl)CCC(Br)C(C)(C)Cl (stereo not drawn) | 19.7 µM | –
14 | CC(CO)(CO)N1C(=O)C2C3C=CC(C3)C2C1=O (stereo not drawn) | > 100 µM | –
15 | COC(=O)c1ccccc1/C=C1\Cc2ccc(C)c(C)c2C1=O | > 100 µM | –
16 | O=c1cc(-c2cccc3ccccc23)[nH]c2ncccc12 | > 100 µM | 0.0282 µM
17 | Nc1nc(/C=C\c2ccc([N+](=O)[O-])s2)nc(N2CCCC2)n1 | 14.1 µM | 3.12 µM
18 | COc1ccc(/C=C2/N=C(c3ccccc3)N(c3c(C)n(C)n(-c4ccccc4)c3=O)C2=O)cc1OC | > 100 µM | 11.3 µM
19 | CCOC(=O)Nc1ccc(C)c(NC(=O)OCC)c1 | > 100 µM | –
20 | CCOC(=O)C12OC(CCC1=O)C(C(=O)OC)=C2C(=O)OC (stereo not drawn) | > 10 µM | –
21 | O=C1/C(=C/c2ccc(Cl)cc2)CCC1CCN1CCOCC1 (stereo not drawn) | > 100 µM | –
22 | COC(=O)C1=C(O)C(C(=O)OC)[C@]2(O)[C@H](C(=O)OC)[C@H]1C[C@@H](c1ccc(C(F)(F)F)cc1)[C@H]2C(=O)OC (stereo partly drawn) | 12.8 µM | –
23 | C#C[C@]1(O)CCC2C3CCc4cc(O)ccc4C3CC[C@@]21C (stereo partly drawn) | 63.9 µM | 10.1 µM
24 | CCC(C)COC(=O)c1ccc(N=Cc2ccc(C=Nc3ccc(C(=O)OCC(C)CC)cc3)cc2)cc1 (stereo not drawn) | > 100 µM | –
25 | CN(C)CC1CCCC/C1=N/OC(=O)c1ccc(Cl)cc1 (stereo not drawn) | > 100 µM | –
26 | COc1ccc(CC2NCCc3c2[nH]c2ccccc32)cc1 (stereo not drawn) | > 100 µM | –

Row | Structure (SMILES) | TGI | GI50
27 | C=C(C)[C@@H]1CC[C@]2(C(=O)NC3CCCCC3)CC[C@]3(C)[C@H](CC[C@@H]4[C@@]5(C)CCCNC(C)(C)[C@@H]5CC[C@]43C)[C@@H]12 | 3.47 µM | 1.74 µM
28 | COc1cc(F)ccc1-c1ncnc(Nc2cccc(CS(C)(=N)=O)c2)n1 (stereo not drawn) | > 100 µM | 0.57 µM
29 | CCCN1C(=O)N(CCC)C2C1NC(=S)N2/N=C/C=C/c1ccccc1OC (stereo not drawn) | > 100 µM | 2.97 µM
30 | CCCc1nc(NC#N)nc(C(=O)Nc2ccccc2)c1CC | > 100 µM | –
31 | O=C(/C=C/c1cccc2ccccc12)c1ccccc1Cl | 31.7 µM | –
32 | CC(=O)Oc1ccc2c(C)cc(=O)oc2c1OC(C)=O | 81.2 µM | –
33 | [N-]=[N+]=N[C@H]1C[C@@H](CO)O[C@H]1n1cnc2c(N)ncnc21 | > 100 µM | –
34 | C[C@H](CCC(=O)O)[C@H]1CC[C@H]2[C@@H]3CC[C@@H]4C[C@H](O)CC[C@]4(C)[C@H]3C[C@H](O)[C@]12C | > 100 µM | –
35 | COc1ccc2cc(/C=N/NC(=O)Nc3ccccc3)ccc2c1 | > 100 µM | –
36 | CCC(C)OC(=O)/C(Br)=C1/OC(=O)c2ccccc2-c2ccccc21 (stereo not drawn) | > 100 µM | –
37 | O=C1CCCC1CN1CCCC1 (stereo not drawn) | > 100 µM | –
38 | CC(O)C1(CNc2cc(Cl)nc(N)n2)CCC1 (stereo not drawn) | > 100 µM | –
39 | CN(C)CCCN1CCC2(CCC(C(C)(C)C)CC2)CC1 | 4.79 µM | –
40 | COc1c(OC[C@H](O)CN2CCOCC2)ccc2c3n(c(=NC(=O)c4cccnc4C)nc12)CCN3 | > 50 µM | 0.348 µM
41 | N#Cc1c(N)nc2n[nH]c(N)c2c1-c1ccc(Cl)cc1 | > 85.9 µM | –
42 | S=C(S)NCNC(=S)S.[Zn+2] | > 100 µM | –
43 | COc1cc2c(c(OC)c1OC)-c1ccc(SC)c(=O)cc1C(NC=O)CC2 (stereo not drawn) | 24.8 µM | –
44 | O=C(CCc1n[nH]c(=S)o1)Nc1ccccc1C(F)(F)F | > 100 µM | –
45 | S=c1sc2c(Cl)nc(Cl)nc2n1-c1ccccc1 | > 100 µM | –
46 | O=c1[nH]nc(Cc2ccccc2)n1/N=C/c1ccccc1O | > 100 µM | –
47 | CC(=O)OC12C=CC(=O)N1c1ccccc1C(=O)O2 (stereo not drawn) | > 100 µM | –
48 | CCCCCCc1cc2cc(C(=O)Nc3ccccc3)c(=N)oc2cc1O | > 100 µM | –
49 | Cn1c(=O)c(-c2ccccc2)c(N=[N+]=[N-])c2ccccc21 | > 100 µM | –
50 | O=Cc1[nH]c(=O)[nH]c(=O)c1C(=O)O | > 100 µM | –
51 | CN1C(=O)N(C)C2C1NN=c1s/c(=C\c3ccc(Cl)cc3Cl)c(=O)n12 (stereo not drawn) | > 100 µM | 0.664 µM
52 | CC1c2c(Cl)nc3ccccc3c2Oc2c1c(Cl)nc1ccccc21 | > 100 µM | –

Row | Structure (SMILES) | TGI | GI50
53 | COc1ccc(/C=C2\N=C(SC)N(CN3CCOCC3)C2=O)cc1 | > 100 µM | –
54 | COC(=O)/C=C(\C)CC(O)/C=C(\C)CCC=C(C)C (stereo not drawn) | > 100 µM | –
55 | COc1ccc2[nH]cc(C3(c4c[nH]c5ccc(OC)cc45)C(=O)Nc4ccc(F)cc43)c2c1 | 15.4 µM | 2.75 µM
56 | COc1ccc(-c2nn(-c3ccc(NC(=O)c4ccc(Cl)c(Cl)c4)cc3)cc2-c2ccncc2)cc1Cl | > 50 µM | > 50 µM
57 | Cc1nn(-c2ccccc2)c2c1C(c1ccc(Cl)cc1)NC(=S)N2 (stereo not drawn) | > 100 µM | –
58 | O=C(O)[C@@H]1CCS(=O)(=O)N1 | > 100 µM | –
59 | COc1cc(Cn2c(-c3ccccc3)c(Cl)c3c2-c2oncc2CC3)cc(OC)c1 | > 100 µM | > 100 µM
60 | CCOC(=O)Nc1ccc(-c2nc(-c3cccc(OCCN4CCOCC4)c3)c(-c3ccnc(Br)c3)[nH]2)cc1 | > 100 µM | 4.08 µM
61 | CN=C(N=Nc1c(O)[nH]c2ccccc12)SCC(=O)c1ccc(Br)cc1 | 58.1 µM | –
62 | C1CN2CCN3CCN4CCN1[P+]243 | > 100 µM | –
63 | Cc1ccc(NC(=O)CCc2cc(C(C)(C)C)nc(=S)[nH]2)cc1C | > 100 µM | –
64 | COC(=O)C1=C(C(=O)NNc2ccccc2)N(c2cccnc2Cl)C(c2ccccc2)=CC1c1ccccc1 (stereo not drawn) | > 100 µM | –
65 | NC(=O)C12CC3CC(CC(F)(C3)C1)C2 | > 100 µM | –
66 | O=C(CC1(O)C(=O)N(Cc2ccccc2)c2ccc(F)cc21)c1ccc(C(=O)NCC2CCC3(CC2)OOC2(CCCCC2)OO3)cc1 (stereo not drawn) | > 100 µM | 5.16 µM
67 | COc1ccc(-[n+]2nc(S(=O)(=O)O)c(/C=C/c3ccc(N(C)C)cc3)cc2C#N)cc1 | > 100 µM | –
68 | COc1ccc(C(=O)/C=C/c2cc(-c3cc(OC)c(OC)c(OC)c3)n[nH]2)cc1OC | 2.9 µM | 1.52 µM
69 | Cn1c(=O)c2c(nc(Cc3ccccc3)n2CC(=O)O)n(C)c1=O | > 100 µM | –
70 | CNCC#Cc1c(F)ccc2c1/C(=C/c1[nH]ccc1OC)C(=O)N2 | 2.48 µM | 0.271 µM
71 | CC12CP(=O)(c3ccccc3)CC1C2(Cl)Cl (stereo not drawn) | > 100 µM | –
72 | Cn1ccc(C(=O)NCCN(CCNC(=O)c2ccn(C)c(=O)c2O)CCNC(=O)c2cccc(=O)n2O)c(O)c1=O | > 100 µM | –
73 | CCC(/C=C/C1OC(=O)C=CC1C)=C\C(C)C/C=C/C(C)=C/C(C)C(=O)C(C)C(O)C(C)C/C(C)=C/C(=O)O (stereo not drawn) | 65.4 µM | –
74 | O=C1C=CC(=O)c2cc3cc(CBr)ccc3cc21 | 52.6 µM | 24.1 µM
75 | O=C(Nc1nc(C23CC4CC(CC(C4)C2)C3)cs1)c1cc2ccc(O)cc2oc1=O | 54.8 µM | –
76 | Cc1ccccc1N1C(=O)C2C=CC(n3[nH]c(=O)n(Cc4ccccc4)c3=O)CC2C1=O (stereo not drawn) | > 100 µM | –
77 | COc1ccc2c(c1)C(=O)c1c-2c(N2CCN(C(=O)CNCCNCCO)CC2)nc2ccccc12 | 30.3 µM | 13.5 µM
78 | CCOC(=O)CN1C(=O)c2ccc(NC(=O)C(=O)O)cc2S1(=O)=O | > 100 µM | –

Row | Structure (SMILES) | TGI | GI50
79 | COc1ccc(Nc2nnc(-c3cc(O)ccc3O)s2)cc1 | > 50 µM | > 50 µM
80 | CN(CC(=O)O)c1ncc2c(n1)CCCC2 | > 100 µM | –
81 | COC(CNC(=O)C(C)NC(=O)/C=C/c1ccccc1)OC (stereo not drawn) | > 100 µM | –
82 | CC(=O)c1c(C)n([O-])c2cc(Cl)c(Cl)cc2[n+]1=O | 64 µM | –
83 | CSc1ncnc2c1ncn2CCC(=O)OC(C)(C)C | > 100 µM | –
84 | N#Cc1c2ccccc2cn1-c1ccc(F)cc1 | > 100 µM | –
85 | N#CCCN(C(=O)Nc1ccccc1)[C@H]1CCCC[C@@H]1N(C(=O)Nc1ccccc1)c1ccccc1 | > 100 µM | –
86 | CC(C)(C)OC(=O)[C@H]1CCC(=S)N1Cc1ccccc1 | > 100 µM | –
87 | CCCCCCOC(=O)/C=C/[C@]1(CO)C/C(=C/CC(C(C)C)C(C)C)C(=O)O1 | 23.9 µM | –
88 | COC(=O)c1cc2ccc(N)nc2[nH]c1=O | > 100 µM | –
89 | CC1CN(C(=O)CN2CCC(CCCCN(C)C)CC2)c2ccccc2NC1=O (stereo not drawn) | > 100 µM | –
90 | Clc1ccc(C2C3COc4ccccc4C3=NN2c2ccccc2)cc1 (stereo not drawn) | > 100 µM | –
91 | CCOc1ccccc1NC(=O)C(=O)CC(=O)c1sc(Nc2nnc(-c3ccc(Cl)c(Cl)c3)o2)nc1C | > 100 µM | –
92 | Cc1cc(S(=O)(=O)Nc2n[nH]c(N)n2)c(SCC(=O)O)cc1Cl | > 10 µM | –
93 | O=c1c(/C=C/c2c(O)ccc3ccccc23)nnc2sc(-c3cccc(Br)c3)nn12 | > 100 µM | –
94 | Cc1cc2oc(=N)c(C#N)c(C)c2cc1C | > 100 µM | –
95 | COc1cc2c(C)cc(O)cc2c2cc(O)c(C)cc12 | 23.1 µM | –
96 | [Cl][Hg][c]1cc[c]([Hg][Cl])o1 | 49.4 µM | 17.1 µM
97 | COc1cc(-c2cc(-c3cc4c([nH]c5ccccc54)c(-c4cc(OC)c(OC)c(OC)c4)n3)cc(-c3ccccc3)n2)cc(OC)c1OC | > 100 µM | 31.2 µM
98 | Cc1cc(Cl)ccc1NC(=O)C(=O)Cc1nc2ccccc2o1 | > 100 µM | –
99 | COc1cc(NS(C)(=O)=O)ccc1Nc1c2ccccc2nc2c1[nH]c1ccc(NC3OC(CO)C(O)C(O)C3O)cc12 (stereo not drawn) | 2.41 µM | –
100 | CC(=O)c1sc(Nc2nnc(-c3ccc(-c4nnc(Nc5nc(C)c(C(C)=O)s5)o4)cc3)o2)nc1C | > 100 µM | –
101 | CCOC(=O)NC(Nc1ccc(S(=O)(=O)Nc2nc(C)cc(C)n2)cc1)(C(=O)OCC)C(F)(F)F (stereo not drawn) | > 100 µM | –
102 | CC1(C)N=C(N)N=C(N)N1c1ccc(CCc2ccccc2)cc1 | > 100 µM | –
103 | CCOc1ccc(NC(=O)CC#N)cc1 | > 100 µM | –
104 | CCOC(=O)c1nnc2c(C(=O)OCC)c3ccccc3n2c1N | 76.5 µM | –

Source: PubChem BioAssay (NCI)
